Experimental findings from PMC6522524 (Nature Communications, 2019) are described below.

This assay concerns HBV in HepG2.2.15 cells. Nature of the assay: microbe, parasite or virus in culture. The format is cell-based, Hepatitis B virus.

In the case of `Cc1cc(C2CCCCC2)n(O)c(=O)c1` [Ciclopirox, 6-cyclohexyl-1-hydroxy-4-methyl-2(1 H)-pyridone], the IC50 (as a rule, the concentration that inhibits the measured activity by half) (Hepatitis B virus, HepG2.2.15, 144 h, HepG2.2.15, 6 days, read-out: IC50, intracellular HBV DNA) turned out to be 800 ± 100 nM.
For `C=C1[C@H](CO)[C@@H](O)C[C@@H]1n1cnc2c(=O)[nH]c(N)nc21` [ETV, entecavir], the “Relative intracellular HBV DNA level (Folds), AVERAGE” value (HepG2.2.15 (figure 4e), 10 μM, 6 days) is reported as 0.03445 Folds.
